From PMC4336329 (PLoS ONE, 2015)
Hit rate of the full screen: of about 310,000 compounds, about 2,200 (0.71%) showed an effect of 50% or more. The effect is printed as a negative number. The list shows a part of the results.

Biological target: human ether-à-go-go-related gene (hERG) potassium channel (human, UniProt Q12809)
Assay: primary screen, population patch clamp on CHO cells stably expressing hERG

Chain of human ether-à-go-go-related gene (hERG) potassium channel (Q12809 whole entry, looked up): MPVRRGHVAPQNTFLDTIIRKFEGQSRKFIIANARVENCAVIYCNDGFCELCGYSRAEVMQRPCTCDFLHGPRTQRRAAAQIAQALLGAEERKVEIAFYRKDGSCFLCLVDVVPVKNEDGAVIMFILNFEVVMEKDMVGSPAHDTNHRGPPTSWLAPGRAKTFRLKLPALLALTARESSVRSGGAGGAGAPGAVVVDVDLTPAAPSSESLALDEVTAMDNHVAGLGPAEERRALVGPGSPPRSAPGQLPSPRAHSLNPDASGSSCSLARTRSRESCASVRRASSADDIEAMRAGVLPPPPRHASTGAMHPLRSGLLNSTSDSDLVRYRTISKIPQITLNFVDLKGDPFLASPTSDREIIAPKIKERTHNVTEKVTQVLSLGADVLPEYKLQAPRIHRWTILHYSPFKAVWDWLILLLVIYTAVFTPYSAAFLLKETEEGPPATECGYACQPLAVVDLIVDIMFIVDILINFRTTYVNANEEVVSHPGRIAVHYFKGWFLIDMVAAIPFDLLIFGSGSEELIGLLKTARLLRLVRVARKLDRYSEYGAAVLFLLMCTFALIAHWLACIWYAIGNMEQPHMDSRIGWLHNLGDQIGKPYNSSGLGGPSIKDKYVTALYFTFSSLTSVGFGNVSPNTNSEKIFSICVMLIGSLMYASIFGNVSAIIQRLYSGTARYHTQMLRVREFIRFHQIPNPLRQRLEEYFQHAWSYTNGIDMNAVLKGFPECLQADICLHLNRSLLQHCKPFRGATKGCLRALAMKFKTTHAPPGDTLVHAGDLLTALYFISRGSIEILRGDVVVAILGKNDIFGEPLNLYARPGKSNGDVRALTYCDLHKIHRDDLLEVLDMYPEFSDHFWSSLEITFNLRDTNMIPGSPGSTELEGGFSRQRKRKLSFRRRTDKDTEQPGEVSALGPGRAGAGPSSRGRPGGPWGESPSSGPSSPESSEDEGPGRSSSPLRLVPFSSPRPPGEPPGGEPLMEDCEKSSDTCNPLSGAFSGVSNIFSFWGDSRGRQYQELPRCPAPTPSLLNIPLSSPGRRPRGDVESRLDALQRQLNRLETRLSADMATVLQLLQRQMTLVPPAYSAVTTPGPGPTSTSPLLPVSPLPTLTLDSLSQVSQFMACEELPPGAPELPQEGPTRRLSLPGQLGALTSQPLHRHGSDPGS

SMILES	hERG current change (%, negative = inhibition) at 1uM [%]
CC(/C=C/c1ccco1)=N/NC(=O)c1ccc(C)nc1	12.7
Cc1cc(C)c(S(=O)(=O)c2ccccc2)c(OC(=O)c2ccc(Cl)cc2Cl)n1	11.1
CCN(CC)S(=O)(=O)N1CCC(C(=O)NC2CCCc3ccccc32)CC1 (centres unmarked)	1.74
CCn1c(CNC(=O)COc2ccc(C(C)C)cc2)nnc1SCC(=O)Nc1cc(F)ccc1C	-23.6
O=C(Cn1c(-c2cscn2)nc2ccccc21)Nc1ccc(Cl)cc1	6.9
CN(CCOC(=O)c1ccccc1)Cc1ccccc1.Cl	12.4
Cc1c(C(=N)C(C#N)C#N)c(=N)oc2c1ccc1ccccc12	5.12
Oc1c(C(c2cccs2)N2CCC3(CC2)OCCO3)sc2ncnn12 (centres unmarked)	14.6
Cc1cccc(NC(=O)CN2CCN(CC(=O)NCc3ccc(Cl)cc3Cl)CC2)c1C	4.8
Cc1ccc(C(=O)O/N=C(\c2ccccc2)c2ccncc2)cc1	8.45
CCCCCNC(=O)C(=O)C1C(=O)Nc2ccccc21 (centres unmarked)	14.7
Cc1ccc(N(CC(O)Cn2c3ccccc3c3ccccc32)S(C)(=O)=O)c(C)c1 (centres unmarked)	-4.23
COc1ncnc2c1oc1nc(C)c3c(c12)CC(C)(C)OC3	4.1
CCN(Cc1ccncc1)Cc1nc(CC2CC2)no1	14.3
COc1ccccc1OCC(=O)NNC(=O)CSC(=S)N1CCCC1	13.4
Cn1c(SCc2ccccc2)nnc1-c1ccco1	10.9
CCN(c1ccccc1)S(=O)(=O)c1cc(OC)ccc1OC	1.48
COc1ccccc1/C=C/C(=O)NC(=S)N1CCN(C)CC1	8.3
O=C(Cc1ccccc1[N+](=O)[O-])Nc1ccccc1C(=O)N1CCOCC1	10.6
CCOc1ccc(CCN2C(=O)C3C4C=CC(C4)C3C2=O)cc1OCC (centres unmarked)	3.44
O=C(C1=C[C@@H](c2ccc(Br)cc2)C[C@@H](OCCCCO)O1)N1CCN(Cc2ccc3c(c2)OCO3)CC1	1.85
Nc1cc(N)nc(SCC(=O)NCC2CCCO2)n1 (centres unmarked)	-4.58
O=[N+]([O-])c1ccc(S(=O)(=O)c2cccc(C(F)(F)F)c2)nc1	7.76

SMILES	hERG current change (%, negative = inhibition) at 1uM [%]
O=C(CSc1ccc(-c2cccc([N+](=O)[O-])c2)nn1)N1CCCCCC1	-2.31
COc1ccc(C)cc1NC(=O)c1ccc(NS(=O)(=O)c2cccc3cccnc23)cc1	13.5
Cc1ccc(C(=O)c2sc3nsc(C)c3c2N)cc1	12
COc1ccc(-c2csc(C3=C(O)CN(CCCN4CCCC4=O)C3=N)n2)cc1OC	5.49
N#Cc1c(N)nc2c(c1-c1ccc3c(c1)OCO3)CCc1ccccc1-2	28.5
COc1ccccc1C1=CC(=O)C[C@H](c2ccc(Cl)cc2)C1	-1.36
O=C(Nc1ccnn1C1CCN(C(=O)c2cccc(Cl)c2)CC1)C1CCOC1 (centres unmarked)	5.85
Cc1ccc(S(=O)(=O)N2CCOCC2)cc1NC(=O)COC(=O)c1cc(=O)c2ccccc2o1	11.3
COc1ccc(OCC(O)COc2ccc(OC)cc2)cc1	5.22
c1ccc(-n2nnc3cnccc32)cc1	7.25
O=C(CCc1ccccc1)NC(=S)Nc1cccc(Br)c1	16.2
Cc1cc(=O)oc2cc(NC(=S)NCc3cccnc3)ccc12	11.5
O=C(NC1CCCCC1)C(c1cccnc1)N(C(=O)CCl)c1cccc(Cl)c1 (centres unmarked)	5.06
COc1cc(/C=N/NC(=O)CCN2CCN(C(c3ccccc3)c3ccccc3)CC2)ccc1O	-4.58
COc1ccc(NC(=S)N(Cc2ccccn2)Cc2ccccc2Cl)cc1	5
O=C(O)C(=O)O.O=C(c1ccco1)N1CCN(Cc2cccc([N+](=O)[O-])c2)CC1	1.3
COc1ccc(NC(=O)CN(C)C(=O)c2c(-c3ccccc3Cl)noc2C)cc1	14.3
O=C(Nc1cccc(S(=O)(=O)N2CCCCC2)c1)c1cc([N+](=O)[O-])ccc1N1CCOCC1	-40.5
COc1ccc(-c2cc(C(=O)NCc3ccco3)c3ccccc3n2)cc1OC	2.33
Cc1ccc(C(=O)NC(=S)N2CCN(c3ccc([N+](=O)[O-])cc3)CC2)cc1	-5.54
CCO[C@H]1OC(C(=O)N2CCN(Cc3ccc4c(c3)OCO4)CC2)=C[C@@H](c2cn(C(C)=O)c3ccccc23)[C@@H]1CCCO	0.802
Cc1onc(-c2ccccc2Cl)c1C(=O)NC(=S)NCCc1ccccc1	-2.53
CCN=c1sc(C(=O)Nc2ccccc2)c(C)n1CC	17

SMILES	hERG current change (%, negative = inhibition) at 1uM [%]
O=C(CSC1=NS(=O)(=O)c2ccccc2N1)c1ccccc1	2.41
Nc1nc(Nc2ccccc2Br)nc(C(F)(F)F)n1	9.56
CCC(=O)Nc1nc(C)c(Oc2ccccc2)c(=O)[nH]1	5.01
CC(=O)N(C(C)=O)c1cccc2c(N(C(C)=O)C(C)=O)cccc12	8.26
Cc1n[nH]c(=O)n1-c1ccc(OCc2ccccc2)cc1	14.7
COc1cc(C)c(Cl)cc1S(=O)(=O)NCCCN1CCOCC1	-3.65
C/C(Cc1ccccc1)=N\NC(=O)CNC(=O)c1ccccc1O	2.86
C=CCc1c(C)nc(SCC(N)=O)[nH]c1=O	10.7
Cc1c(OCC(=O)NCc2ccncc2)ccc2c3c(c(=O)oc12)CCCC3	3.26
COc1ccc(OC)c(S(=O)(=O)N2CCN(C(=O)c3cc(C4CC4)nn3-c3ccccc3)CC2)c1	6.74
CCOC(=O)c1cn(CC(=O)Nc2ccc3c(c2)OCCO3)nn1	8.58
CCc1cccc(C)c1NC(=S)N(Cc1cccnc1)Cc1ccco1	1.42
Cc1cc(C)c2nc(NC(=O)c3ccc4c(c3)OCO4)sc2c1	4.12
CCOC(=O)c1[nH]c(C)c(C(=O)OCC(=O)N2CC(=O)Nc3ccccc32)c1C	8.63
Cc1nc(-c2ccc(Cl)cc2)sc1C1(C)CC(c2cccc(Cl)c2)=NO1 (centres unmarked)	4.46
CC(C)C[C@H](NC(=O)N1CC(=O)Nc2ccccc21)C(=O)N1CCC[C@H]1C(=O)O	12.7
CCOc1ccccc1NC(=O)NC1(C(=O)NCc2cccnc2)CCCCC1	14.7
O=C(Cc1cccs1)NCCn1ccc2ccccc21	6.3
CCC(Oc1ccccc1)C(=O)Nc1ccc(-c2nnc(-c3ccco3)o2)cc1 (centres unmarked)	-11.2
O=S(=O)(NCc1ccc(F)cc1)c1ccc2c(c1)OCCO2	8.92
COc1ccccc1C(CNC(=O)CNC(=O)c1ccccc1Cl)N1CCCC1 (centres unmarked)	11.8
CN(CCc1ccccn1)S(=O)(=O)c1ccc2c3c(cccc13)C(=O)N2	4.65
Cc1ccc(S(=O)(=O)NC(CC(C)C)C(=O)N2CCOCCOCCOCC2)cc1 (centres unmarked)	14.4

SMILES	hERG current change (%, negative = inhibition) at 1uM [%]
O=S(=O)(NCC(c1ccccc1)N1CCNCC1)c1ccc(Cl)cc1 (centres unmarked)	4.55
COc1cc2c(cc1OC)C(c1ccccc1O)N(C1CC(=O)N(c3ccccc3)C1=O)CC2 (centres unmarked)	2.14
CCOP(=O)(OCC)C(c1ccccc1)N(C)C=O (centres unmarked)	-7.97
C/C(=N\NC(=O)C(N)=O)c1ccc(OC(F)F)cc1	4.24
CC(Oc1ccccc1F)C(=O)/C=C/N(C)C (centres unmarked)	22
CCCN1CN=C(NS(=O)(=O)c2ccc(C)cc2)NC1	15.9
O=C(NCc1ccccc1)c1cccn(Cc2ccccc2)c1=O	6.04
O=C(OCCc1cc2ccccc2c(=O)o1)c1ccc2c(c1)OCO2	12.3
Cc1ccc(N2C(=O)Nc3ccccc3S2(=O)=O)cc1Cl	8.43
CCCNC(=O)c1cc2ccccc2c(=O)o1	10.5
COc1ccc2oc(=N)c(C(=O)Nc3ccc(C)cc3)cc2c1	16.1
COC(=O)[C@H](Cc1ccccc1)NS(=O)(=O)N[C@@H](Cc1ccccc1)C(=O)OC	11.4
CC(C)(C)Cc1nnc(NC(=O)CSc2ccccc2)s1	12.2
O=C(O)c1cc(-c2ccc(Cl)cc2)n(-c2ccccc2)n1	21.9
O=C(CSc1nnc(COc2cccc3cccnc23)o1)N1CCCC1	10.8
CCn1ccc(C(=O)NC2CCCC2)n1	8.64
O=C(O)CC(CC(=O)Nc1ccc(-n2ccc(C(F)(F)F)n2)cc1)c1ccccc1 (centres unmarked)	12.5
CC(C)(C)NC(=O)CN(Cc1ccccc1)S(=O)(=O)c1ccccc1	1.65
CC1(C)CC(=O)C(C2(O)C(=O)NC(=O)NC2=O)=C(O)C1	6.08
CCOC(=O)c1nn(-c2ccccc2)c(=O)cc1OCC(=O)Nc1cc(C)ccc1C	9.15
